The campaign covered roughly 310,000 compounds. About 14,000 (4.5%) showed an effect of 50% or more. Effects have a minus sign here. The list shows a part of the results.

This note sets out measurements from paper PMC4336329 (PLoS ONE, 2015).
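Also: peak tail current of the secondary pulse compared with the same well before compound.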

The target in the experiment is human ether-à-go-go-related gene (hERG) potassium channel (human, UniProt Q12809). The experiment is described as follows: primary screen, population patch clamp on CHO cells stably expressing hERG.
Chain of human ether-à-go-go-related gene (hERG) potassium channel (Q12809 whole entry, looked up): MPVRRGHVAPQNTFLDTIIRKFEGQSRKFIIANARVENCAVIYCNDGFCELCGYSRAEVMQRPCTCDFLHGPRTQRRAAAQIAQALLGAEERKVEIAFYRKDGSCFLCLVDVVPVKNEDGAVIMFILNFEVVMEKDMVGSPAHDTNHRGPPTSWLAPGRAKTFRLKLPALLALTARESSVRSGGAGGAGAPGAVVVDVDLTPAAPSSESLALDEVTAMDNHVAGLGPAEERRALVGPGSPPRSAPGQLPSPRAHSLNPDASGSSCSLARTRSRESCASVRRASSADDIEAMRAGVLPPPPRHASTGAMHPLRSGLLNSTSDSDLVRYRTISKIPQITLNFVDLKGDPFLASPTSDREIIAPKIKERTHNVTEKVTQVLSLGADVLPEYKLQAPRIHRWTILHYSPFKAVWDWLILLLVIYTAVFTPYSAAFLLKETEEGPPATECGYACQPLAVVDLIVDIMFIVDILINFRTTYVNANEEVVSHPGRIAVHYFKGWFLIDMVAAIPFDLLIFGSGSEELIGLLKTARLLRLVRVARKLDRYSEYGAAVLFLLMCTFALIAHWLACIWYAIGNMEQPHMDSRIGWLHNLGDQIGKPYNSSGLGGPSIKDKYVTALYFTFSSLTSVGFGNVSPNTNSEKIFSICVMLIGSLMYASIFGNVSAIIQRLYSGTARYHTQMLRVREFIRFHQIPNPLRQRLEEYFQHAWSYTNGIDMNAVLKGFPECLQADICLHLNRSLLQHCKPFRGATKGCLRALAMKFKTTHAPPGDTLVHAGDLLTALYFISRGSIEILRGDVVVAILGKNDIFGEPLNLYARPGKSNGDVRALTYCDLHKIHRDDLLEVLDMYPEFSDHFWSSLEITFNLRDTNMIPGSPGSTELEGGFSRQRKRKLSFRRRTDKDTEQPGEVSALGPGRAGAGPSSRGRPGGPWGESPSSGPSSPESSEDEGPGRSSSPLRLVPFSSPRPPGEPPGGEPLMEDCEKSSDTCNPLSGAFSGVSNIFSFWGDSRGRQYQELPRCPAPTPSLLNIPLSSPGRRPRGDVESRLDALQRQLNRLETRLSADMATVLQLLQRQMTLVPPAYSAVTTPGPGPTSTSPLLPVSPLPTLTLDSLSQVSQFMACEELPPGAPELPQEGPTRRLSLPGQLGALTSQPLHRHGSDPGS
For the compound `COc1cc(C(=O)Oc2cc(C)cc(C)c2)cc(OC)c1OC`, the “hERG current change (%, negative = inhibition) at 10uM” value is recorded as 30.3%.
For the compound `CN(C)Cc1cc(CN(C)C)c(O)c(CCc2ccccc2)n1.Cl`, the “hERG current change (%, negative = inhibition) at 10uM” value is 10.8%.
The result for `Cc1cccc(N2CCN(C(=O)CSc3ccsc3[N+](=O)[O-])CC2C)c1` (stereo not drawn) reads -10.8%; that for `O=C(O)c1ccc(NC(=S)NC(=O)c2ccc(-c3ccccc3)cc2)cc1`, 19.4%.
With `O=[N+]([O-])c1ccc(O)c(C=Nc2ccc3c(c2)OCCO3)c1`, the “hERG current change (%, negative = inhibition) at 10uM” value was 6.23%.
On to `CCC(NS(=O)(=O)c1ccc(C)cc1)C(=O)N1CCN(c2ccccn2)CC1` (stereo not drawn), for which the “hERG current change (%, negative = inhibition) at 10uM” value is reported as -6.59%.
The result for `O=C(O)c1cc2ccccc2n1-c1ccccc1` reads 9.57%; that for `Cc1ccnc(NC(=O)Nc2ccc3c(c2)N(C)C(=O)CS3)c1`, 4.14%.
The result for `COc1ccc(CNC(=O)C2CCC(=O)N(CCCN3CCCC3=O)C2)cc1` (stereo not drawn) reads 11.2%.
`COc1cccc(C(=O)Nc2cc(=O)n(C)c(=O)n2C)c1`: the “hERG current change (%, negative = inhibition) at 10uM” value was 17.3%.
The result for `O=C(CC1C(=O)NCCN1C(=O)Nc1ccccc1)Nc1ccc(F)cc1` (stereo not drawn) reads 3.45%; that for `N#CC(C(=O)NC1CCCCC1)c1nc2ccccc2nc1N1CCN(c2ccccc2F)CC1` (stereo not drawn), -0.245%.
For the compound `COc1cn(-c2ccccc2)nc1C(=O)OCC(=O)Nc1ccc(C)c(C)c1`, the “hERG current change (%, negative = inhibition) at 10uM” value came to 7.08%.
As for `Cc1c(N(C)C)nc2ccccc2c1N.O=C(O)C(=O)O`, the “hERG current change (%, negative = inhibition) at 10uM” value is listed as -46.5%.
The result for `Cc1ccc(C(=O)Nc2ncc([N+](=O)[O-])s2)cc1` reads 9.09%; that for `Cn1c(=O)oc2cc(S(=O)(=O)NCCN3CCN(c4ccccc4)CC3)ccc21`, -10.9%.
The figure for `COC(=O)c1ccc(S(=O)(=O)NCc2ccccc2)n1C` is -5.1%; for `Cc1cc(OCC(=O)N2C[C@H]3C[C@@H](C2)c2cccc(=O)n2C3)c2c(C)c(C)c(=O)oc2c1` it is 0.123%; for `CCOc1ccc(-c2nonc2NC(=O)c2ccco2)cc1OCC` it is 19.2%.
The figure for `O=C(O)CCSc1nc2ccccc2c(=O)[nH]1` is 5.02%.
Take `CC1(C)CC(=O)C2=C(C1)N(c1ccccc1)C(N)=C(C#N)C2c1ccccc1` (stereo not drawn): the “hERG current change (%, negative = inhibition) at 10uM” value is 2.6%.
The result for `Cc1nn(CCc2nn[nH]n2)c2nc(C(F)(F)F)cc(C(F)(F)F)c12` reads 6.25%; that for `CCOC(=O)c1cnn(-c2ccccc2)c1-c1ccccc1`, 7.07%.
The figure for `COc1ccc(OC)c(S(=O)(=O)N2CCN(CC(O)COc3ccc(C#N)cc3)CC2)c1` (stereo not drawn) is -66.2%; for `CCN1C(=O)CC(C(=O)NC)SC1=Nc1cc(Cl)c(O)c(Cl)c1` (stereo not drawn) it is 22.1%.
As for `Cc1cc([N+](=O)[O-])nn1CCCC(=O)Nc1ccc(Cl)cc1Cl`, the “hERG current change (%, negative = inhibition) at 10uM” value is reported as -27.9%.
The figure for `Cc1ccc(-c2nnn(CC(=O)N(CC(=O)NCC3CCCO3)c3ccc(F)c(Cl)c3)n2)o1` (stereo not drawn) is -4%; for `COC(=O)CCC(=O)OC1(C)C(=O)C=C2C=C(C3CC3)OC=C2C1=O` (stereo not drawn) it is 6.14%.
Consider `Cc1ccc(C)c(C(C)NC(=O)C2CCCC2)c1` (stereo not drawn), for which the “hERG current change (%, negative = inhibition) at 10uM” value is 12.2%.
The figure for `C=CCN(C(=O)CCC(=O)O)C1CC(=O)N(c2ccc(OCCC)cc2)C1=O` (stereo not drawn) is 0.711%; for `CCc1cc2c(=O)n(Cc3ccco3)c(SCC(=O)N3CCCc4ccccc43)nc2s1` it is -23.4%; for `CC(OC(=O)c1ccncc1)C(=O)Nc1cc(S(=O)(=O)N2CCCCC2)ccc1Cl` (stereo not drawn) it is -15.5%.
The result for `FC(F)(F)c1cccc(NC(=S)NNC(=S)Nc2ccc(Cl)cc2)c1` reads 14.1%.
The figure for `CC(=O)NNc1ncnc2ccccc12` is 21.5%; for `Br.COc1cccc(C(=O)CSc2nccn2C)c1` it is 24.2%; for `O=C(CCC1COc2ccccc2O1)NCC1COc2ccccc2O1` (stereo not drawn) it is -14.6%.
`Cc1ccc(C(=O)NCCc2nnc3ccc(N4CCCC4)nn23)cc1`: the “hERG current change (%, negative = inhibition) at 10uM” value is on record as 13%.
`CCOC(=O)/C=C1\SCC(=O)N1CC(=O)Nc1ccc(C(C)C)cc1`: the “hERG current change (%, negative = inhibition) at 10uM” value is -29.8%.
Turning to `COc1ccc(NC(=O)CSc2nnc(-c3ccccn3)n2Cc2ccco2)cc1OC`, the “hERG current change (%, negative = inhibition) at 10uM” value is reported as -39.2%.
As to `COc1ccc(-c2cc(=O)oc3cc(OCC(=O)N4C[C@H]5C[C@@H](C4)c4cccc(=O)n4C5)ccc23)cc1`, the “hERG current change (%, negative = inhibition) at 10uM” value was -53.5%.
The figure for `Cc1occc1C(=O)Nc1ccc2c(c1)CCC2` is -1.92%; for `CCN1C[C@]2(CO)CC[C@H](OC)[C@@]34C2[C@H](OC)[C@@](O)(C13)[C@@]1(O)C[C@H](OC)[C@H]2C[C@@H]4[C@@H]1[C@H]2OC` it is 5.23%.
The figure for `Cc1ccc(NC(=S)N(CCN(C)C)Cc2cc3cccc(C)c3[nH]c2=O)cc1` is -55.6%; for `CCCOc1ccc(CN(C(=O)c2cccc(OC)c2)C2CCS(=O)(=O)C2)cc1` (stereo not drawn) it is -25.4%.
The figure for `COc1ccccc1NC(=O)c1ccccc1NS(=O)(=O)N1CCCC1` is 7.27%; for `O=C(OCc1ccccc1)c1cccc(-c2nnn(Cc3ccccc3)n2)c1` it is 4.3%; for `Cc1cccc(C)c1NC(=O)CS(=O)CC(=O)NCC1OCCc2ccccc21` (stereo not drawn) it is 22.2%.
Consider `C=CCn1c(P(C)(=O)O)nc2ccccc21`, for which the “hERG current change (%, negative = inhibition) at 10uM” value was 17.5%.
The result for `CCCCn1c(CCNC(=O)CC)nc2ccccc21` reads -11.2%; that for `CCC(=O)c1ccc(OCC(=O)OCC(=O)N2CCc3ccccc3C2)cc1`, -24.8%; that for `COc1ccc(-c2oc(NC(=O)c3ccc(C)cc3)c(C#N)c2-c2ccc(OC)cc2)cc1`, -11.6%.
Turning to `CCOc1cc2c(cc1/C=C1/NC(=O)N(CC(=O)OC)C1=O)OCO2`, the “hERG current change (%, negative = inhibition) at 10uM” value is 15%.
As to `Cc1cc(N2CCC(C(=O)NC3CCCCC3)CC2)nc(-c2ccccc2)n1`, the “hERG current change (%, negative = inhibition) at 10uM” value is -49.6%.
The figure for `CCOc1ccc(CCNC(=O)CSc2cc(=O)n(C)c3ccc(Cl)cc23)cc1OCC` is -21.4%; for `CCCCC1(CCCC)C(=O)NC(=Nc2cccc(C)c2)NC1=O` it is 0.0469%; for `O=C(c1ccc(Cl)c(S(=O)(=O)Nc2ccc(F)cc2)c1)N1CCN(c2ccccn2)CC1` it is -33.9%.
The figure for `Cc1oc(-c2ccccc2F)nc1CS(=O)CC(=O)NCc1ccccn1` (stereo not drawn) is -0.614%; for `O=C(NC1CCCC1)C(c1ccncc1)N(C(=O)c1csnn1)c1ccccc1` (stereo not drawn) it is 15.1%.
The figure for `Cc1cccc(NC(=O)C2c3ccccc3Oc3ccccc32)n1` is 4.69%; for `Cc1ccc(-c2cc(C(=O)NCCc3ccc(S(N)(=O)=O)cc3)c3ccccc3n2)cc1` it is -1.37%.
On to `Cc1cc(C)cc(NC(=S)NCC2CCN(C(C)c3ccccc3)C2)c1` (stereo not drawn), for which the “hERG current change (%, negative = inhibition) at 10uM” value is -63.3%.
As for `CCOC(=O)c1ccc(N=c2sc(C(=O)OC)cc(=O)n2C2CC2)cc1`, the “hERG current change (%, negative = inhibition) at 10uM” value is -0.0139%.
The figure for `CC(C)(C)NC(=O)Cn1cc(C#N)c2cc(Br)ccc21` is 4.22%; for `COc1ccc(OCCCC(=O)Nc2cccc(S(=O)(=O)N3CCCCCC3)c2)cc1` it is -45.2%; for `O=C(Nc1ccc(CN2CCCCC2)cc1)c1c(F)c(F)c(F)c(F)c1F` it is -56.5%.
The result for `Cc1c(C2CC(=O)N(c3ccccc3)C2=O)[nH]n(-c2ccccc2)c1=O` (stereo not drawn) reads 3%; that for `CCOC(=O)c1c(NC(=O)c2nn(CC)cc2Br)c(C#N)nn1-c1ccccc1`, -2.69%.
The figure for `CCc1ccc(C2C3=C(CCCC3=O)OC3=C2C(=O)CCC3)cc1` is 3.19%.
For the compound `CC1/C(=N/O)C(CN(C)C)C2CC1C2(C)C.Cl` (stereo not drawn), the “hERG current change (%, negative = inhibition) at 10uM” value is recorded as 18.8%.
The result for `COc1ccc(C(=O)c2coc3ccc(O)c(CN4CCOCC4)c23)cc1` reads -51.2%; that for `COc1ccc(C(=O)NCCN2CCOCC2)cc1[N+](=O)[O-]`, 8.47%; that for `O=S1(=O)CCO[C@H]2Cc3ccccc3[C@H]2N1Cc1cccc(C(F)(F)F)c1`, -9.04%.
As to `COc1ccc(-n2c(CNC(=O)COc3ccc(Cl)cc3)n[nH]c2=S)cc1`, the “hERG current change (%, negative = inhibition) at 10uM” value is -0.948%.
As to `Cl.O=C(CN1CCNCC1)NCCSc1ccc(Cl)cc1`, the “hERG current change (%, negative = inhibition) at 10uM” value is -15.7%.
The result for `Cn1c(CCNC(=O)c2ccccc2F)nnc1SCC(=O)Nc1ccccc1F` reads 3.44%; that for `CC(C)COC(=S)Nc1ccccc1`, 6.77%.
As to `O=C1NC[C@H](Cc2ccccc2)N(CC2CCCCC2)C1=O`, the “hERG current change (%, negative = inhibition) at 10uM” value is given as 4.91%.
The result for `CCCOc1ccccc1C(=O)N1CCNC(=O)C1CC(=O)OC(C)C` (stereo not drawn) reads 0.716%; that for `Cc1ccc(C(=O)NCC(=O)N/N=C/c2sccc2C)cc1[N+](=O)[O-]`, 18.6%.
The result for `CN(C)C(CNC(=O)CCNS(=O)(=O)c1ccccc1C(F)(F)F)c1ccccc1` (stereo not drawn) reads -27.8%; that for `O=C(OC(C(=O)NC1CCCCC1)c1ccccc1F)c1ccco1` (stereo not drawn), 10.7%.
In the case of `O=C(Nc1cccc2[nH]ncc12)c1ccc(F)cc1`, the “hERG current change (%, negative = inhibition) at 10uM” value is -17.4%.
Consider `Cc1cccc(NC(=O)c2cc(S(=O)(=O)N3CCOCC3)cn2C)c1C`, for which the “hERG current change (%, negative = inhibition) at 10uM” value is listed as 0.701%.
The result for `CC1CC(C)(C)NC(=S)N1CCC(=O)N1CCc2ccccc2C1` (stereo not drawn) reads 0.935%; that for `C=CCOc1ccc(CNCCO)cc1OCC.Cl`, -5.9%.
With `O=C(CC1CCCCC1)NCc1ccccc1Cl`, the “hERG current change (%, negative = inhibition) at 10uM” value was 2.13%.
As for `Cc1c(C(=O)N2CCN(c3ccccc3F)CC2)sc2ncn(CC(=O)N3CCOCC3)c(=O)c12`, the “hERG current change (%, negative = inhibition) at 10uM” value is -3.64%.
